# PubChem BioAssay AID485364 (National Center for Advancing Translational Sciences (NCATS), 2010)
# The campaign covered roughly 360,000 compounds. About 11,000 (3.1%) were called active. The shares of active, inactive and inconclusive entries below differ from those in the screen. Calls follow the shape of the dose curve; as a rule, active = well fitted inhibition curve with a large enough effect; inconclusive = small, poorly fitted or top-dose-only effect; inactive = no such curve, though single readings can be large or run the other way. No potency is given beside an inconclusive call; the fits are too rough.
# Target: Schistosoma mansoni thioredoxin glutathione reductase (TGR) (UniProt Q962Y6)
# Test: qHTS Assay for the Inhibitors of Schistosoma Mansoni Peroxiredoxins; also: nearly all actives have a fitted effect of over 60% in size
# Conditions: purified TGR, DTNB reduction, TNB absorbance 405 nm; activity change, negative = inhibition: at 114 µM (top of the series) unless noted
# Procedure, shortened: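 TGR 20 nM + NADPH 100 uM (dispensed conc.), cpd preinc 15 min RT; start with NADPH (500 uM addition) then DTNB (15 mM addition). Kinetic TNB absorbance, 405 nm filter. Four-parameter Hill fit across titration.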
# % is scaled to controls: 0 for no effect and ±100 for the full control effect; potency is read from the fitted curve at half-maximal effect; tags tell the direction and shape of the fitted curve.
SMILES,Potency,"activity change, negative = inhibition"
CC(C)(C)OC(=O)N1CCC(CNC(=O)c2ccc(F)cc2)CC1,inactive,–
Cn1c(C(=O)Nc2ccc(OC(F)(F)F)cc2)cc2c(=O)n3ccccc3nc21,inactive,–
O=C1Nc2ccccc2C12OCCO2,"inconclusive [inhibitor, single point]",–
COc1cccc(NC(=O)N2CCc3ccccc3C2)c1,inactive,–
N#C/C(=C\c1ccc(N2CCOCC2)o1)C(=O)N1CCOCC1,"inconclusive [inhibitor, partial curve]",–
COCCn1c(C)cc(O)c(C(c2ccc(F)cc2)N2CCC(C)CC2)c1=O (stereo not drawn),active: 10 µM,–
O=C(O)C1C2C=CC(O2)C1C(=O)Nc1cccc(C(F)(F)F)c1 (stereo not drawn),active: 100 µM,–
S=C(Nc1ccccc1)Nc1ccc(Br)cc1,"inconclusive [inhibitor, full curve]",–
O=C(CCl)NCCCCCCCCCNC(=O)CCl,"inconclusive [inhibitor, partial curve]",–
c1cc[n+](CCC[n+]2ccccc2)cc1,"inconclusive [inhibitor, full curve]",–
CCn1ccc(C(=O)Nc2sc3c(c2C(=O)OC)CCC3)n1,"inconclusive [inhibitor, partial curve]",–
CCOC(=O)N1CCC(NC(=O)CS(=O)Cc2nc(-c3ccc(OC)c(OC)c3)oc2C)CC1 (stereo not drawn),"inconclusive [inhibitor, partial curve]",–
Cc1cc(OC(=O)C(c2ccccc2)c2ccccc2)c([N+](=O)[O-])c(=O)[nH]1,"inconclusive [inhibitor, single point]",–
N#Cc1c(NC(=S)NC(=O)C2CCCC2)sc2c1CCCCC2,inactive,–
COc1ccccc1N1CCN(C(=O)c2cc(C)oc2C)CC1,"inconclusive [inhibitor, partial curve]",–
Cc1cccc(C)c1NC(=O)COC(=O)c1cc[n+]([O-])cc1,"inconclusive [inhibitor, partial curve]",–
CCCCn1ccnc1C(=O)c1cc(S(=O)(=O)N2CCOCC2)ccc1C,inactive,–
COc1ccc(-c2nc(CS(=O)(=O)CC(=O)Nc3cccc(C(C)=O)c3)c(C)o2)cc1,"inconclusive [inhibitor, partial curve]",–
CC/C(=N\NC(=O)c1c(-c2ccccc2)noc1C)c1ccc(C)o1,inactive,–
COC(=O)c1[nH]c2cccc(C)c2c1NC(=O)CN1CCN(C(=O)c2ccco2)CC1,"inconclusive [inhibitor, partial curve]",–
CCn1cc(C(=O)N2CCN(c3ccc(OC)cc3)CC2)c(=O)c2cc(S(=O)(=O)N3CCOCC3)ccc21,"inconclusive [inhibitor, partial curve]",–
CS(=O)(=O)c1ccc(C(=O)Nc2nc(-c3ccco3)c(-c3ccco3)s2)cc1,active: 3.55 µM,–
O=C(COC(=O)CCC(=O)c1cccs1)NCc1ccco1,active: 25.1 µM,–
Cc1ccc(C2C(C(=O)c3cc4ccccc4o3)=C(O)C(=O)N2CCN2CCOCC2)cc1 (stereo not drawn),active: 31.6 µM,–
O=c1c2c(nc3cc(-c4cccc(Cl)c4)[nH]n13)CCC2,"inconclusive [inhibitor, single point]",–

SMILES,Potency,"activity change, negative = inhibition"
CCS(=O)(=O)N1CCN(S(=O)(=O)c2ccc3ccccc3c2)CC1,"inconclusive [inhibitor, single point]",–
CC1=C[C@@H]2c3cccc4[nH]cc(c34)C[C@H]2N(C)C1,active: 2.24 µM,–
CC(=O)C1=C(C)NC(SCC(=O)c2ccc(F)cc2)=C(C#N)C1CC(C)C (stereo not drawn),"inconclusive [inhibitor, partial curve]",–
CCN1C(=O)/C(=c2\sc3nc(=O)c(Cc4ccccc4)nn3c2=O)c2ccccc21,active: 3.55 µM,–
CC(=O)c1ccc(Oc2cc(-c3ccccc3)nc(-c3ccccc3)n2)cc1,inactive,–
COc1ccc(C2=NS(=O)(=O)N(C)C(C(=O)Nc3ccc4c(c3)OCO4)=C2)cc1,inactive,–
O=C(O)c1cc(-c2ccc(Cl)s2)nc2ccccc12,inactive,–
Cc1ccc2nc(C)cc(C(=O)N3CCCC(N4CCN(c5ccccc5C)CC4)C3)c2c1 (stereo not drawn),inactive,–
COc1ccccc1OC(C)C(=O)N1CCC(Cc2ccccc2)CC1 (stereo not drawn),"inconclusive [inhibitor, partial curve]",–
COc1cccc(OC)c1C(=O)NC(=S)Nc1ccc(S(=O)(=O)Nc2nccs2)cc1,"inconclusive [inhibitor, partial curve]",–
CN(C(=O)CC1C(=O)NCCN1Cc1ccc(F)c(F)c1)C1CCCCC1 (stereo not drawn),"inconclusive [inhibitor, partial curve]",–
O=C(NC1CCCC1)C(c1ccncc1)N(Cc1ccccc1)C(=O)c1ccc(-c2ccccc2)[nH]1 (stereo not drawn),"inconclusive [inhibitor, partial curve]",–
O=C(Cc1ccccc1)c1ccc(Cl)cc1,inactive,–
O=C(Cn1ncc2c3ccccc3n(Cc3ccc(F)cc3)c2c1=O)NCCCN1CCCCC1,inactive,–
Cc1onc(-c2ccccc2)c1C(=O)Nc1cccc(OC(C)C)c1,inactive,–
O=c1cc(-c2ccccc2F)oc2ccccc12,inactive,–
O=C(Nc1nnc(C23CC4CC(CC(C4)C2)C3)s1)c1ccc(N2C(=O)CCC2=O)cc1,"inconclusive [inhibitor, partial curve, poor fit]",–
O=S(=O)(c1ccccc1F)N1CCN(Cc2cc3c(cc2O)OCO3)CC1,active: 0.708 µM,–
CCOc1ccc(NC(=O)Cn2c(=O)n(-c3ccc(C)cc3)c(=O)c3cc(OC)c(OC)cc32)cc1,inactive,–
Cc1ccc2nsnc2c1NC(=O)c1cncc(Br)c1,"inconclusive [inhibitor, partial curve]",–
COC(=O)c1c(C(=O)OC)c(-c2ccc(F)cc2)n2c1CS(=O)(=O)C2,"inconclusive [inhibitor, single point]",–
O=C(CN1CCN(Cc2ccccc2)CC1)NC(=O)NC1CCCCC1,–,inconclusive: -40.1% [inhibitor]
C/C(CC(=O)N1CCN(C=O)CC1)=N\NC(=O)c1ccc([N+](=O)[O-])cc1,"inconclusive [inhibitor, partial curve]",–
CC(=O)c1cccc(S(=O)(=O)N(CCCO)Cc2cc3ccc(C)cc3[nH]c2=O)c1,"inconclusive [inhibitor, partial curve]",–
Cc1ccc(-c2nnc(N3CCCCC3)c3ccccc23)cc1S(=O)(=O)NCC1CCCO1 (stereo not drawn),inactive,–

SMILES,Potency,"activity change, negative = inhibition"
O=C(CSc1nc2ccccc2c(=O)n1CC1CCCCC1)N1CCOCC1,inactive,–
CCOC(=O)C1(CC2CCCCO2)CCN(Cc2ccccc2-c2ccco2)CC1 (stereo not drawn),active: 39.8 µM,–
O=C(CCC(=O)N(CC(=O)NC1CCCC1)Cc1ccc2c(c1)OCO2)Nc1nccs1,"inconclusive [inhibitor, partial curve, poor fit]",–
COc1ccc(CN2CCNC(=O)C2CC(=O)NCC(C)(C)N2CCOCC2)cc1C (stereo not drawn),inactive,–
CCOc1ccc(NC(=O)CCNC(=O)C2CCN(S(=O)(=O)c3ccccc3)CC2)cc1,"inconclusive [inhibitor, partial curve]",–
O=C(Nc1ccccc1-c1ccccc1)C1CCC1,"inconclusive [inhibitor, full curve, poor fit]",–
CN(C)S(=O)(=O)c1cccc(C(=O)Nc2ccccc2N2CCCCC2)c1,inactive,–
CCOC(=O)N1CCN(C(=O)c2ccc(CS(=O)Cc3ccccc3Cl)o2)CC1 (stereo not drawn),"inconclusive [inhibitor, partial curve]",–
Cc1ccc(-c2nc3ccccc3[nH]2)cc1NC(=O)/C=C/c1ccco1,active: 20 µM,–
Cc1ccc(-c2ccc(C(=O)Nc3cccc(F)c3)o2)c2ccccc12,"inconclusive [inhibitor, partial curve]",–
O=C1c2cccnc2-c2ncccc21,inactive,–
Cn1c(=O)c2c(SCC(=O)N3CCOCC3)nc(-c3ccccc3Cl)nc2n(C)c1=O,inactive,–
CC(=O)OCCc1[nH]c2ccccc2c1C,"inconclusive [inhibitor, partial curve]",–
O=S(=O)(c1ccccc1)c1nc(-c2ccco2)oc1N1CCCCCC1,"inconclusive [inhibitor, partial curve]",–
c1ccc(CCNc2ncnc3nc[nH]c23)cc1,inactive,–
COc1cccc(CN2CCNC(=O)C2CC(=O)N(C)CCC2CCOCC2)c1OC (stereo not drawn),active: 25.1 µM,–
Cc1sc2nc[nH]c(=S)c2c1-c1ccccc1,"inconclusive [inhibitor, single point]",–
Cn1nnnc1SCCCNCc1ccc(-c2ccc(Br)cc2)o1,"inconclusive [inhibitor, partial curve]",–
CS(=O)(=O)Nc1nc2n(n1)C(c1ccccc1)C=C(c1ccc(Br)cc1)N2 (stereo not drawn),active: 22.4 µM,–
CC(=O)N/C(=C\c1ccccc1)C(=O)OCC(=O)Nc1cc(S(=O)(=O)N(C)C)ccc1Cl,"inconclusive [inhibitor, partial curve]",–
Cc1cc(C)c2[nH]c(=O)c(C(c3nnnn3Cc3ccc4c(c3)OCO4)N3CCCCC3)cc2c1 (stereo not drawn),"inconclusive [inhibitor, partial curve]",–
Cn1cc(CN2CCC(n3nccc3NC(=O)c3ccccc3Cl)CC2)c2ccccc21,inactive,–
Cc1ccc([C@@H]2[C@@H]3C(=O)N(C)C(=O)[C@@H]3[C@]3(C)C(=O)N(CCO)CC(=O)N23)o1,"inconclusive [inhibitor, partial curve]",–
